Results on one compound are retold here after PubChem BioAssay (NCI).

SMILES strings stand for the structures.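 Method: 48-hour compound exposure of cells in 96-well plates, five concentrations, linear interpolation of endpoints. Here, GI50 denotes the concentration required for 50% inhibition of growth. The concentration for full growth arrest is given as TGI.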 Activity calls are given as the source filed them.

For one experiment, the system named is CCRF-CEM leukemia. Kind of experiment: NCI tumour cell line growth inhibition, 48 h.
A further experiment deals with SR leukemia. Kind of experiment: NCI tumour cell line growth inhibition, 48 h.

For the compound `CCOC(=O)c1ccc(N/N=C/c2cn(-c3ccc(S(N)(=O)=O)cc3)nc2-c2ccc(OC)cc2)cc1`, the GI50 result with CCRF-CEM leukemia and in the experiment with SR leukemia was “inactive” in each case. The TGI was found to be 11.7 µM in the experiment with CCRF-CEM leukemia and 6.63 µM in the experiment with SR leukemia.
